Results on 22 molecules are retold here after publication PMC12136788.

First the molecules themselves.
B1: chr3:122573770:122573871:+|3pUTR|ENSG00000163840|msi1|total|mutant (ssRNA)
RNA: GGGAGUUCUACAGUCCGACGAUCUAUUGGGUGCACUUGCCCUGCCACAGUAAUGCUAUAUAUUUCUGAGCAUUGUUUUUCUCCCGAUAAUUUUAUAUUUUUGAGUAUACCCCACUUCCAAGUGUUUUUUGUUUUGUUUUGCUUCAACAGAGGAUUGAGCAUCA
B2: chr3:23980279:23980388:+|3pUTR|ENSG00000174738|unk|total|mutant (ssRNA)
RNA: GGGAGUUCUACAGUCCGACGAUCUUUUUCUUUUCCAAUAUAAAGUUUGCUGAAUGUACAAGAAGAGUUUAUCACUCCGGAUACCGAAUUUUUUCCGGGGUUGGGGGAGGGGAUCUGUCCGGAAACUGUUACCUAUAAACAAAGCAACAGAGGAUUGAGCAUCA
B3: chr13:32776882:32776983:+|3pUTR|ENSG00000083642|unk|total|mutant (ssRNA)
RNA: GGGAGUUCUACAGUCCGACGAUCAAAGUGUUUUGAAUUGUGUCUUAAUCUCUCCAUAUUCAACUAUUCUUCAUUUACAACAACCGUGACACCAGUAAUUAUGAGAGGCUGUCAUAUAUCAAAGCAGCUCAGGUGGGAUCAACACAACAGAGGAUUGAGCAUCA
B4: chr11:43405833:43405939:+|CDS|ENSG00000052841|unk|total|mutant (ssRNA)
RNA: GGGAGUUCUACAGUCCGACGAUCGGCCCAAACCCCUGACUGUUCCAUAACUGACUUCAGAAAAAGCCACACUCUGUCCUACUCCGUCAAAGAAUCCGAGGUUCGCAUGGAUCUGAAAGCCAAAAUGCCAGAUGACCAUGCACGCAACAGAGGAUUGAGCAUCA
B5: chr2:216675988:216676089:-|3pUTR|ENSG00000115461|msi1|total|mutant (ssRNA)
RNA: GGGAGUUCUACAGUCCGACGAUCACUAAAAUGCAUUCCAUUCCUCUGAAAGCAAAACAAAUUCAUAAUUGAGUGAUAUUAAACCGAGAGGUUUUCGGAAGCAGAUCUGUGAAUAUGAAAUACAUGUGCAUAUUUCAUUCCCCACAACAGAGGAUUGAGCAUCA
B6: chr7:116918052:116918157:+|3pUTR|ENSG00000198898|unk|FALSE|unique (ssRNA)
RNA: GGGAGUUCUACAGUCCGACGAUCUUUUCAUUUUGUUUGUUCUAAGAGGAUUGAAAAUCAGUUUAGUUUAAAUGUCUUUCUGUUAGGCCUUUCUUUCUUACAAUGAAGAGAUGAUUCUUCUAGUUUAUGGUUAAAAGUUUUUGACAACAGAGGAUUGAGCAUCA
B7: chr8:35759345:35759454:+|CDS|ENSG00000156687|unk|total|mutant (ssRNA)
RNA: GGGAGUUCUACAGUCCGACGAUCCAUCAAGGUGGACAGCUCCUGGAAGAACCAAAAUUGCUGCAUUUCAAAGGGAAUACCUUCCGUCUUCAGAUUUCUGUCCUUGAUAUUCCCCCAUUCCUCUGGAGAAUUAAACCAUUCACUCAACAGAGGAUUGAGCAUCA
B8: chr10:126015758:126015859:-|3pUTR|ENSG00000148848|msi1|total|mutant (ssRNA)
RNA: GGGAGUUCUACAGUCCGACGAUCAAAUACUCAGAUAAGGUAAAAUGCCAUGAUGCCUCUGUCUUCUGGACUGGUUUUCACAUCCGAAGACAAUUGACAACAGUUACAUAAUUCACUCUGAGUGUUUUAUGAGAAAGCCUUCUUCAACAGAGGAUUGAGCAUCA
B9: ENSG00000198589:be:win_5851|CDS|ENSG00000198589|bound_else_gene|NA|bound_elsewhere_windowed (ssRNA)
RNA: GGGAGUUCUACAGUCCGACGAUCACUCAACUAAUCCAGAAAAUUAUCAACAUUCUCACAGACAAGCAUGGAGCCUGGGGAAAUUCUGCAGUGAGUCGUCCUCUUGAGUUCUGGCGCCUUGACUACUGGGAAGAUGACUUGCGGCAACAGAGGAUUGAGCAUCA
B10: chr12:79773885:79773986:-|3pUTR|ENSG00000058272|msi1|total|mutant (ssRNA)
RNA: GGGAGUUCUACAGUCCGACGAUCGGUUAUUUAUUCUUUGUAUCUAAAACUGAACAGCUACUGUGCUAUAUUGAUUUUAUUGGCCGUAUUGAGCAGACCUUGUUUCUGCAUGAAACCCGUUGCAAAACCCACUAUUUUGGAAAUCAACAGAGGAUUGAGCAUCA
B11: chr12:76029359:76029534:-|3pUTR|ENSG00000139289|msi1|total|mutant (ssRNA)
RNA: GGGAGUUCUACAGUCCGACGAUCAGAAGUUUAAAAAGCUAAAAGUUAAAAAUGGUGUAAUUAUGAAAAUCUAACACUCAAGACCGUUUCUAAAAGGAAAUCAGCCGUUAAGGAUACCUGAUUUCAAAAUAUUUAAAGCAUAACCAACAGAGGAUUGAGCAUCA
B12: chr2:27433287:27433389:+|CDS|ENSG00000115216|unk|FALSE|unique (ssRNA)
RNA: GGGAGUUCUACAGUCCGACGAUCUUCCAGCAUGUCGGAGGGGGAGUCCCAGACAGUACUUAGCAGUGGCUCAGACCCAAAGGUAGAAUCCUCAUCUUCAGCUCCUGGCCUGACAUCAGUGUCACCUCCUGUGACCUCCACAACCAACAGAGGAUUGAGCAUCA
B13: chr6:142752714:142752806:-|3pUTR|ENSG00000010818|msi1_unk|total|mutant (ssRNA)
RNA: GGGAGUUCUACAGUCCGACGAUCUUUUCUUUACUUUGCUUAUAUUCUUAUAAGCAUUUUUCCGCAGUAAUUUGUACAUAUUUCCGAAUUUGUGUAUCUGCUUUGUAAUAAAUGUAAUUUCUUUCCUUUUUUGGACACUUGGAUCAACAGAGGAUUGAGCAUCA
B14: chr8:19954154:19954263:+|CDS|ENSG00000175445|unk|total|mutant (ssRNA)
RNA: GGGAGUUCUACAGUCCGACGAUCACCUAACUUUGAGUAUGCAGAAGCCCCGAGUCGUCUUUCUCCUGAUGAUGCAGAUUUUGCCGACGUCUUACACACAUUCACCAGAGGGUCCCCUGGUCGAAGCAUUGGAAUCCAGAAACCCAACAGAGGAUUGAGCAUCA
B15: chr4:75577918:75578020:-|3pUTR|ENSG00000138769|unk|total|mutant (ssRNA)
RNA: GGGAGUUCUACAGUCCGACGAUCGGUUGUUCCGGGAACCAGAAUUUGUGAGUUUUUUUUUUUUUUUUGCCUUAACUAAUUAACCGUGUGUUGCUUUUUUUCCAAAGCCAUUGACCCGAACUCCGCUGAAGAAUUUAACCCGAACAACAGAGGAUUGAGCAUCA
B16: chr1:225496770:225496921:-|3pUTR|ENSG00000154380|msi1|total|mutant (ssRNA)
RNA: GGGAGUUCUACAGUCCGACGAUCUUUUUUAAUUGCAGACAGUAAUGCAUGUCACACUAAUAUGCCGUGGCCUUUUCAAGGCCCCGUCCCAGGGAAAACAUUUUGCCGAGUACCGGGGAGUGGGAGGAAGGGGAGGAAUAAUUUCAACAGAGGAUUGAGCAUCA
B17: chr8:79641408:79641533:+|CDS|ENSG00000104435|unk|FALSE|unique (ssRNA)
RNA: GGGAGUUCUACAGUCCGACGAUCCCAGGCUUUUGAGCUGAUCUUGAAGCCACCAUCUCCUAUCUCAGAAGCCCCACGAACUUUAGCUUCUCCAAAGAAGAAAGACCUGUCCCUGGAGGAGAUCCAGAAGAAACUGGAGGCUGCCAACAGAGGAUUGAGCAUCA
B18: chr13:47936490:47936773:-|three_prime_utr|ENSG00000136143|control|control|control (ssRNA)
RNA: GGGAGUUCUACAGUCCGACGAUCCAGAGAAGCAUCUUUUUAUUUGUUUUUGAUAUCCUUGUUUGAUGAAACCAGCAUCGUUUUAGAAAAAAUAUCUUUGUUUUAGUAAAAAUGACACAUACUCAUUGAAAAAAUAAACCCCUUCAACAGAGGAUUGAGCAUCA
B19: chrX:51682015:51682831:-|CDS|ENSG00000283093|control|control|control (ssRNA)
RNA: GGGAGUUCUACAGUCCGACGAUCCAGUGCCCCCGGGUCCAAGUCGGGGUCGGGAGCCACGCGGCGGCCAAGAGGUGGCUGGGUAGGUGGCGACGGAAGCGCCGCUGGCGGCGGGUCCGGAAGGCGGGCCCCAGAGACCUGCUGCAACAGAGGAUUGAGCAUCA
B20: chr2:1632960:1633155:-|3pUTR|ENSG00000130508|msi1|FALSE|unique (ssRNA)
RNA: GGGAGUUCUACAGUCCGACGAUCGUCCAUUUUUUAGGUAUUAGAUAUGGCAGAAAAACCAUUUCCACUAUGCAAAGUUCUUUUAGACGUCAGUGAAAAUCAACUCUCAUACCUCAUGGUCUCUCUUUAAUUGACCAAAACCUUCAACAGAGGAUUGAGCAUCA
B21: chr17:79834786:79834887:-|CDS|ENSG00000141582|unk|FALSE|unique (ssRNA)
RNA: GGGAGUUCUACAGUCCGACGAUCAAUGAUGCCGGCCCCCAAAGAGGCUGUGACGGGCAACGGGAUUGGGGGCAAGAUGAAGAUAGUCAAGAACAAGAACAAGAACGGACGCAUCGUGAUCGUGAUGAGCAAAUACAUGGAGAACAACAGAGGAUUGAGCAUCA
B22: chr19:33301014:33301115:-|3pUTR|ENSG00000245848|unk|FALSE|unique (ssRNA)
RNA: GGGAGUUCUACAGUCCGACGAUCUCCCUGCGAGGAGGGGAGAAUUCUUGGGGCUGAGCUGGGAGCCCGGCAACUCUAGUAUUUAGGAUAACCUUGUGCCUUGGAAAUGCAAACUCACCGCUCCAAUGCCUACUGAGUAGGGGGCAACAGAGGAUUGAGCAUCA

This is one part of the list.

The experiment has as its target T1, UNK ZnF1-6 (called full-length) (human, UniProt Q9C0B0 30-357).
T1 sequence: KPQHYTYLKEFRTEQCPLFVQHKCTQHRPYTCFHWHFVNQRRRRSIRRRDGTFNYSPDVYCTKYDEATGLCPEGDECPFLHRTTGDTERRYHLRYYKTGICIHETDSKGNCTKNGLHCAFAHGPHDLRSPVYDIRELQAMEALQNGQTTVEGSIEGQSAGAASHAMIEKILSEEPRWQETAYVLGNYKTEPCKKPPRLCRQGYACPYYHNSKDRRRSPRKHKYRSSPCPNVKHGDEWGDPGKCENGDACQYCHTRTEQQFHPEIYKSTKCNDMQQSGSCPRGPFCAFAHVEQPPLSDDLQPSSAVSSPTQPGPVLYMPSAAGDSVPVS
As to the kind of experiment: nsRBNS (natural sequence RNA bind-n-seq); RBNS binding buffer (assumed for nsRBNS): 25 mM Tris pH 7.5, 150 mM KCl, 3 mM MgCl2, 0.01% Triton X-100, 500 ug/ml BSA, 20 U/ml SUPERase-In, 4 C; UNK is unkempt and MSI1 is Musashi-1; names of the RNAs are library labels; protein concentration not given here; high values mean tight binding.
As to B1, the binding signal amounted to 3.14 enrichment R.
In the case of B2 it was 0.86 enrichment R; in that of B3, 0.995 enrichment R; in that of B4, 0.444 enrichment R.
Next, B5: 0.351 enrichment R.
In the case of B6, the binding signal was found to be 3 enrichment R.
Next, B7: 0.378 enrichment R.
Next, B8: 0.255 enrichment R; B9: 0.85 enrichment R; B10: 0.588 enrichment R.
Next, B11: 0.525 enrichment R; B12: 0.848 enrichment R.
B13: the binding signal stood at 0.576 enrichment R.
For the molecule B14, the binding signal is 0.688 enrichment R.
In the case of B15 it was 1.76 enrichment R.
The molecule B16 showed a binding signal of 1.22 enrichment R.
Next, B17: 0.628 enrichment R; B18: 5.18 enrichment R.
In the case of B19 it was 6.11 enrichment R; in that of B20, 0.915 enrichment R.
In turn, B21 registered a binding signal of 0.763 enrichment R.
In the case of B22 it was 4.16 enrichment R.
